Data published in PubChem BioAssay AID1345082 (National Center for Advancing Translational Sciences (NCATS), 2018).
Values joined by “and” are separate entries in the source; they are usually repeats but may differ in a detail not shown here. Identical values can stand only once. Among all 94,000 compounds or so, about 4,000 (4.3%) were called active. Inconclusive means that the source gave no clear call. Such entries were picked first, then a sample of the others. Calls come from the whole dose curve; as a rule, active = well fitted inhibition curve with a large enough effect; inconclusive = small, poorly fitted or top-dose-only effect; inactive = no such curve, though single readings can be large or run the other way. Potencies beside an inconclusive call are fits to weak or partial responses and may not hold up.

Assay: Cytotoxic Profiling in NIH 3T3 Cell Line of Diverse Libraries Using Quantitative High-Throughput Screening; note: nearly all actives have a fitted effect of over 55% in size
Details: NIH 3T3 viability, CellTiter-Glo ATP luminescence, 48-72 h; series mostly up to 96.7 µM
Summary of the method: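 Cytotoxicity is measured as loss of cellular ATP: NIH 3T3 cells (400/well) are exposed to compound for 48 or 72 hr at 37 °C, then CellTiter-Glo luminescence is imaged after 10 min at room temperature.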
Potency is the fitted concentration of half-maximal effect; tags give direction and shape of the fitted curve.

Row | SMILES | Potency
1 | CC1Oc2ccc(NC(=O)c3cccs3)cc2CN(Cc2ccc(F)cc2)C1=O (stereo not given) | inconclusive: 50.1 µM [inhibitor, partial curve, poor fit]
2 | COC(=O)[C@]1(CC(C)C)N[C@H](c2cc(C(C)C)no2)[C@@H]2C(=O)N(C)C(=O)[C@@H]21 | inconclusive: 89.1 µM [inhibitor, single point]
3 | O=C(NCC1CCN(c2cc(-c3ccc(F)cc3)[nH]n2)CC1)c1cc(C2CC2)[nH]n1 | inconclusive: 44.7 µM [inhibitor, partial curve, poor fit]
4 | O=C1C(c2ccccc2)CC2(CCN(Cc3cccc(O)c3)CC2)CN1C1CC1 (stereo not given) | inactive
5 | Cc1ccccc1CNC[C@H]1O[C@H](Cc2cc(CN(C)Cc3ccccc3)on2)CC[C@@H]1O | inconclusive: 70.8 µM [inhibitor, single point]
6 | COc1ccc(-c2cc(C(=O)N3CCOC(c4ccc(F)cc4)C3)[nH]n2)cc1 (stereo not given) | inconclusive: 79.4 µM [inhibitor, single point]
7 | Fc1ccc2oc([C@H]3CCN(CC4CCCCC4)C3)nc2c1 | inconclusive: 112 µM [inhibitor, single point]
8 | Cc1ccc(-c2cc3c(=O)n(CC(O)c4ccc(C)c(C)c4)ccn3n2)c(C)c1 (stereo not given) | inconclusive: 39.8 µM [inhibitor, partial curve, poor fit]
9 | Fc1ccccc1CN1CCNc2cnc(Oc3ccccc3)cc2C1 | inconclusive: 56.2 µM [inhibitor, partial curve, poor fit]
10 | O=C(C1CCCCC1)N1CC[C@H](c2nnc(-c3ccncc3)o2)C1 | inactive
11 | Cc1ccccc1CN1CCC(CN(Cc2cccnc2)C(=O)Cc2ccccc2)CC1 | inconclusive: 28.2 µM [inhibitor, partial curve, poor fit]
12 | O=C(CCC1CCN(S(=O)(=O)c2ccccc2)CC1)NCCc1ccccc1 | inconclusive: 39.8 µM [inhibitor, partial curve, poor fit]
13 | Cc1ccc(C(=O)N2CCN(C3CCN(CCc4ccccc4)C3=O)CC2)cc1F (stereo not given) | inactive
14 | COc1ccc(Nc2ccnc(N3CCCC(C(=O)N4CCN(C(C)=O)CC4)C3)n2)cc1 (stereo not given) | inconclusive: 44.7 µM [inhibitor, partial curve, poor fit]
15 | CC(=O)N1CCC(c2nnc3n2C(C(=O)N2CCN(C)CC2)CC3)CC1 (stereo not given) | inactive
16 | Cc1ccc(C)c(NC(=O)CN2C(=O)NC(c3ccc(Cl)cc3)C3=C2COC3=O)c1 (stereo not given) | inconclusive: 50.1 µM [inhibitor, partial curve, poor fit]
17 | COc1ccc(CN[C@@H]2CCC[C@@H](C(=O)N(C)Cc3cccnc3)CC(=O)N(C)C2)cc1 | inactive
18 | Cc1ccc(C(=O)N2CCC3(CC2)N=C(c2cccc(Br)c2)NO3)cc1 | active: 15.8 µM
19 | Clc1ccc(-c2ccc(CN3CC[C@H]4CC[C@@H](C3)N4)o2)cc1 | active: 28.2 µM
20 | C#Cc1cccc(C(=O)N2CCC(Cc3ccc(Cl)cc3)(C(=O)OCC)CC2)c1 | active: 20 µM
21 | COc1ccc(F)c(F)c1CN1CCC2(CCNCC2)C1 | inconclusive: 56.2 µM [inhibitor, partial curve, poor fit]
22 | CCOCCNC(=O)c1c(C)noc1-c1ccc(OC)cc1 | inactive

Row | SMILES | Potency
23 | O=C(Nc1ccc(Cl)cc1)N1Cc2[nH]cnc2C[C@H]1c1nc(-c2ccc(OC(F)(F)F)cc2)no1 | active: 25.1 µM
24 | C#CCNC(=O)C1CN(c2ccc(OC)cc2)C(=O)N1 (stereo not given) | inconclusive: 31.6 µM [inhibitor, full curve]
25 | Cn1nccc1C(=O)N1CCc2c(n(CCOc3ccccc3)n(-c3ccccc3)c2=O)C1 | inconclusive: 5.62 µM [inhibitor, full curve, poor fit]
26 | O=C(c1[nH]nc2c1CCc1ccccc1-2)N1CCC(c2noc(-c3ccccn3)n2)C1 (stereo not given) | inconclusive: 44.7 µM [inhibitor, partial curve, poor fit]
27 | COc1ccc(NC2=N[C@H]3[C@@H](O)[C@H](O)C[C@H](C(=O)NCc4ccccc4OC)[C@H]3S2)cc1 | inactive
28 | CNC(=O)c1cc(C2CC2)nc2c1c(C1CCCN1C(=O)OC)nn2C (stereo not given) | inactive
29 | O=C1COc2ccc(-c3ccoc3)nc2CN1Cc1ccc(C(F)(F)F)cc1 | active: 79.4 µM
30 | Cc1ccccc1N1Cc2c(NCC3CCCCC3)ncnc2N(C)CC1=O | inconclusive: 44.7 µM [inhibitor, partial curve, poor fit]
31 | O=C(CCCN1CCCCC1=O)N[C@@H]1[C@@H]2CCO[C@@H]2[C@@H]1C1CCCC1 | inactive
32 | CCOC(=O)C1CCCN(C(=O)CC(c2ccc3c(c2)OCO3)c2cn(CC)c3ccccc23)C1 (stereo not given) | active: 39.8 µM
33 | CCc1cc(=O)n(CC(=O)Nc2ccc(Br)cc2)c(N2CCOCC2)n1 | inconclusive: 44.7 µM [inhibitor, partial curve, poor fit]
34 | Cc1[nH]c2c(F)cccc2c1CC(=O)N1CCCC(c2nc(C(C)C)no2)C1 (stereo not given) | inconclusive: 79.4 µM [inhibitor, single point]
35 | Cc1cccc(-c2cccc(CN3CCC(NC(=O)Nc4ccccc4)CC3)c2)c1 | active: 12.6 µM
36 | C[C@@]1(O)CCN(C(=O)C2(c3ccccc3)CC2)C[C@@H]1Cc1ccccc1 | inconclusive: 50.1 µM [inhibitor, partial curve, poor fit]
37 | O=C(N[C@H]1CCN2C(=O)c3cc(-c4ccsc4)ccc3NC(=O)[C@H]12)c1cccs1 | inconclusive: 79.4 µM [inhibitor, partial curve]
38 | CCOC(=O)[C@@H]1CN([S+](=O)([O-])c2ccc(C(C)=O)cc2)[C@H]2c3ccc(OC)cc3O[C@@H]12 | inconclusive: 50.1 µM [inhibitor, partial curve, poor fit]
39 | NC(=O)NCC(=O)N1CCCC(c2cc(N3CCOCC3)ncn2)C1 (stereo not given) | inactive
40 | Cc1cccc(N2CCN(C(=O)c3noc(-c4ccc[nH]c4=O)n3)CC2)c1C | inconclusive: 31.6 µM [inhibitor, partial curve, poor fit]
41 | C#CCNC(=O)C1CN(c2cccc(Cl)c2)C(=O)N1 (stereo not given) | inconclusive: 63.1 µM [inhibitor, partial curve, poor fit] and inconclusive: 28.2 µM [inhibitor, full curve, poor fit]
42 | COc1ncccc1-c1nc(-c2c(C)noc2C)cc2[nH]c(C)cc12 | inconclusive: 31.6 µM [inhibitor, partial curve]
43 | Cc1cc(C)cc(-c2ccc(CN3CCCC(NC(=O)Nc4ccccc4)C3)cc2)c1 (stereo not given) | active: 10 µM
44 | COc1ccc(CN2CCOCCNC(=O)CC2)cc1Cc1c(C)noc1C | inconclusive: 50.1 µM [inhibitor, partial curve, poor fit]

Row | SMILES | Potency
45 | Cc1nc(C2CC23CCN(S(C)(=O)=O)CC3)no1 (stereo not given) | inconclusive: 79.4 µM [inhibitor, single point]
46 | O=C(NCc1cccs1)c1nc(-c2cccnc2)c2cnccn12 | inconclusive: 35.5 µM [inhibitor, partial curve]
47 | CCCOc1ccc(CNC(=O)c2c(OCC)cc(=O)n3c2CCCC3)cc1 | inconclusive: 50.1 µM [inhibitor, partial curve, poor fit]
48 | COc1cc(-c2ccc(C)s2)cc2c1OCCN(Cc1nc[nH]c1C)C2 | inconclusive: 79.4 µM [inhibitor, partial curve, poor fit]
49 | CN(CC1CCOCC1)C(=O)Nc1ccccc1C(F)(F)F | inactive
50 | COc1ccc(-n2nc3n(c2=O)CCN(Cc2cccnc2)C3)cc1 | inconclusive: 50.1 µM [inhibitor, partial curve, poor fit]
51 | CN1C(=O)CC(C(=O)O)C12CCN(Cc1cc(Cl)ccc1F)CC2 (stereo not given) | inactive
52 | CC1=C(C(=O)OC(C)C)C(c2cccc(F)c2)N2C(CC(=O)NCc3ccco3)=CSC2=N1 (stereo not given) | inconclusive: 56.2 µM [inhibitor, partial curve, poor fit]
53 | CCn1nccc1C(=O)N1CC(c2nc(CCOc3cccc(C)c3)no2)C1 | inactive
54 | CCc1ccc(CN(C)C(=O)c2ccc3oc(-c4cccc(F)c4)nc3c2)nc1 | inconclusive: 56.2 µM [inhibitor, partial curve, poor fit]
55 | COc1ccc(C(C)NC(=O)CN2C(=O)C(c3ccccc3)=NC2(C)C)cc1 (stereo not given) | inactive
56 | O=C(CN1C(=O)NC2(CCCCC2)C1=O)NCc1ccccc1 | inconclusive: 50.1 µM [inhibitor, partial curve, poor fit]
57 | Cn1nc(-c2ccncc2)cc1NC(=O)c1ccccc1Cl | inconclusive: 25.1 µM [inhibitor, full curve, poor fit]
58 | c1ccc2cc(-c3nc(C4CCOC4)no3)ncc2c1 (stereo not given) | inactive
59 | O=C(c1cccc2[nH]ccc12)N1CCCN(c2cc(-c3ccc(Cl)cc3)[nH]n2)CC1 | inconclusive: 39.8 µM [inhibitor, partial curve]
60 | CCn1cc(CN2CCCCCNC(=O)[C@@H]3CCC[C@@H]32)cn1 | inactive
61 | COC[C@@H]1CN(Cc2ccc(OC)c(C)c2)C[C@H]1C(=O)N(C)C | inactive
62 | Cc1noc2c(-c3cccnc3NC3CCN(C)CC3)cc(-c3ccccc3)nc12 | active: 31.6 µM
63 | Cn1nc(C2CC2)cc1N[S+](=O)([O-])c1ccccc1 | inactive
64 | O=C(CN1CCn2nnc(-c3nc(-c4ccccc4)no3)c2C1=O)Nc1ccc(Cl)cc1 | inactive
65 | COCCN1CCCCCC(O)c2cc(C(=O)Nc3cc(C)ccc3OC)ccc21 (stereo not given) | inconclusive: 50.1 µM [inhibitor, partial curve, poor fit]
